# According to the antibiotic and cytotoxicity screens of Wong et al. (2023):
# This is one part of the list.
# Legend:
# HSkMC = human skeletal muscle cells; assay: cytotoxicity call (relative viability < 0.9); details: 10 µM
# S. aureus RN4220 = assay: growth inhibition call (relative growth <= 0.2); details: 50 µM
SMILES,cytotoxicity call (HSkMC),growth inhibition call (S. aureus RN4220)
C[C@H]1CN([C@@H](C)CO)C(=O)c2cc(NC(=O)Cn3cnnn3)ccc2O[C@H]1CN(C)S(=O)(=O)c1ccc(Cl)cc1,inactive,inactive
C[C@H]1CCCCO[C@H](CN(C)C(=O)Nc2ccc(F)cc2)[C@@H](C)CN([C@@H](C)CO)C(=O)c2cc(NS(=O)(=O)c3ccccc3)ccc2O1,inactive,inactive
CO[C@H]1O[C@H](CO)[C@@H](OC(=O)Nc2ccc3c(c2)OCO3)[C@@H]2OC(=O)[C@H](Cc3cccc(Br)c3)C/C=C/C[C@@H](Cc3cccc(Br)c3)C(=O)O[C@@H]12,inactive,inactive
Cc1ccc(Nc2c(-c3ccccc3)nc3ccccn23)cc1,inactive,inactive
C[C@@H]1CN([C@@H](C)CO)C(=O)Cc2cc(NC(=O)NC3CCCCC3)ccc2O[C@H]1CN(C)Cc1ccc(-c2ccccc2)cc1,inactive,inactive
CCS(=O)(=O)N1C[C@]2(C1)CN([C@@H](CO)c1c2c2ccc(cc2n1C)OC)C(=O)c1ccc(cc1)F,inactive,inactive
C[C@@H]1CN([C@@H](C)CO)C(=O)c2cc(NC(=O)Cn3cnnn3)ccc2O[C@H]1CN(C)Cc1ccc(-c2ccccc2)cc1,inactive,inactive
CN1N=C2CCN(C(=O)[C@@H](COCc3ccccc3)NC(=O)C(C)(C)N)C[C@@]2(Cc2ccccc2)C1=O,inactive,inactive
C[C@@H]1CN([C@@H](C)CO)C(=O)CCCn2cc(nn2)CO[C@@H]1CN(C)C(=O)Nc1cccc2ccccc12,inactive,inactive
CN(C)C1CN(S(=O)(=O)CCC2CC2)C1,inactive,inactive
COc1ccc(NC(=O)Nc2ccc3c(c2)C(=O)N([C@@H](C)CO)C[C@H](C)[C@H](CN(C)C(=O)C2CCCCC2)OCCCC[C@@H](C)O3)cc1,inactive,inactive
C[C@@H]1CCCCO[C@H](CN(C)Cc2ccccc2)[C@H](C)CN([C@@H](C)CO)C(=O)c2cc(NC(=O)Nc3ccccc3)ccc2O1,inactive,inactive
C[C@@H]1CN([C@H](C)CO)C(=O)c2cc(NC(=O)Cc3ccccc3)ccc2O[C@@H](C)CCCCO[C@@H]1CN(C)CC1CCCCC1,inactive,inactive
CCCn1c(=O)[nH]c2nc(-c3ccc(S(=O)(=O)N4CCN(c5ccc(Cl)cc5)CC4)cc3)[nH]c2c1=O,active,inactive
O=C(C[C@H]1CC[C@H]2[C@@H](COC[C@@H](O)CN2C(=O)Nc2ccc(C(F)(F)F)cc2)O1)NCCc1ccncc1,inactive,active
CC(=O)N[C@H]1[C@H]([C@H](O)[C@H](O)CO)OC(C(=O)O)=C[C@@H]1NC(=N)N,inactive,inactive
COCOC[C@H](C)N1C[C@@H](C)[C@H](CN(C)S(=O)(=O)c2ccc(F)cc2)OCCCC[C@H](C)Oc2ccc(NC(=O)Nc3ccccc3)cc2C1=O,inactive,inactive
C[C@H]1CN([C@@H](C)CO)C(=O)c2cc(NC(=O)Nc3ccc(F)cc3)ccc2O[C@H]1CN(C)Cc1ccc(C(F)(F)F)cc1,inactive,inactive
C[C@@H]1CCCCO[C@@H](CN(C)Cc2ccc3c(c2)OCO3)[C@H](C)CN([C@H](C)CO)C(=O)c2cc(NS(=O)(=O)c3cccs3)ccc2O1,inactive,inactive
CCOC(=O)C1=NNC[C@@H]1C(=O)OCC,inactive,inactive
C[C@@H]1CN([C@@H](C)CO)C(=O)c2cccc(NC(=O)CCCCCC(=O)Nc3ccccc3N)c2O[C@H]1CN(C)Cc1ccc(-c2ccccc2)cc1,inactive,inactive
Cc1noc(C)c1NC(=O)Nc1ccc2c(c1)C(=O)N([C@H](C)CO)C[C@H](C)[C@H](CN(C)Cc1ccc(Cl)c(Cl)c1)OCCCC[C@@H](C)O2,inactive,inactive
C[C@H](CO)N1C[C@H](C)[C@@H](CN(C)Cc2ccc(C(F)(F)F)cc2)Oc2ccc(NC(=O)CCC(F)(F)F)cc2CC1=O,inactive,inactive
C[C@@H]1CCCCO[C@H](CN(C)C(=O)Nc2ccc(F)cc2)[C@H](C)CN([C@@H](C)CO)C(=O)c2cc(NC(=O)c3ccncc3)ccc2O1,inactive,inactive
CC(=O)N1[C@H](CO)[C@@H](c2ccccc2)[C@H]1CNC(=O)CN1CCOCC1,inactive,inactive
CC(C)NC(=O)Nc1cccc2c1O[C@@H](CN(C)S(=O)(=O)c1ccc(Cl)cc1)[C@@H](C)CN([C@H](C)CO)C2=O,inactive,inactive
C[C@H]1CN([C@@H](C)CO)C(=O)c2cccc(NC(=O)c3ccc(-c4nccs4)cc3)c2O[C@H]1CN(C)C(=O)Nc1ccc(F)cc1,inactive,inactive
